The chains are these.
B1: STRAP (protein, UniProt Q9Z1Z2 1-350)
chain: MAMRQTPLTCSGHTRPVVDLAFSGITPYGYFLISACKDGKPMLRQGDTGDWIGTFLGHKGAVWGATLNKDATKAATAAADFTAKVWDAVSGDELMTLAHKHIVKTVDFTQDSNYLLTGGQDKLLRIYDLNKPEAEPKEISGHTSGIKKALWCSDDKQILSADDKTVRLWDHATMTEVKSLNFNMSVSSMEYIPEGEILVITYGRSIAFHSAVSLEPIKSFEAPATINSASLHPEKEFLVAGGEDFKLYKYDYNSGEELESYKGHFGPIHCVRFSPDGELYASGSEDGTLRLWQTVVGKTYGLWKCVLPEEDSGELAKPKIGFPETAEEELEEIASENSDSIYSSTPEVKA
B2: DUSP6 (protein, UniProt Q9DBB1 1-381)
chain: MIDTLRPVPFASEMAICKTVSWLNEQLELGNERLLLMDCRPQELYESSHIESAINVAIPGIMLRRLQKGNLPVRALFTRCEDRDRFTRRCGTDTVVLYDENSSDWNENTGGESVLGLLLKKLKDEGCRAFYLEGGFSKFQAEFALHCETNLDGSCSSSSPPLPVLGLGGLRISSDSSSDIESDLDRDPNSATDSDGSPLSNSQPSFPVEILPFLYLGCAKDSTNLDVLEEFGIKYILNVTPNLPNLFENAGEFKYKQIPISDHWSQNLSQFFPEAISFIDEARGKNCGVLVHCLAGISRSVTVTVAYLMQKLNLSMNDAYDIVKMKKSNISPNFNFMGQLLDFERTLGLSSPCDNRVPTPQLYFTTPSNQNVYQVDSLQST
B3: GEMIN8 (protein, UniProt Q8BHE1 1-238)
chain: MASNWRASASWYSHPVYARYWQHYHHAMLWMQGHQNAYRKFRDSYFTSPWLFPHGALPWNSPAYEAGHPWDSQGQHMAQQESPYRVSHPKSPGQPLRNSSRTQASTRGNEARCEEEELESDSDDEVECDLSNMEITEELRQYFAQTERHREERRRQQQLDAERLNDYVNADHGLYFNHRRSLEPPSEKPWERRQAEMKRLYGNSAPKILAMETAVQLSFDKHCDRKQPKYWPVIPLKF

Amino acid sequences for entries named in this document (tags omitted).
UniProt Q8BX17: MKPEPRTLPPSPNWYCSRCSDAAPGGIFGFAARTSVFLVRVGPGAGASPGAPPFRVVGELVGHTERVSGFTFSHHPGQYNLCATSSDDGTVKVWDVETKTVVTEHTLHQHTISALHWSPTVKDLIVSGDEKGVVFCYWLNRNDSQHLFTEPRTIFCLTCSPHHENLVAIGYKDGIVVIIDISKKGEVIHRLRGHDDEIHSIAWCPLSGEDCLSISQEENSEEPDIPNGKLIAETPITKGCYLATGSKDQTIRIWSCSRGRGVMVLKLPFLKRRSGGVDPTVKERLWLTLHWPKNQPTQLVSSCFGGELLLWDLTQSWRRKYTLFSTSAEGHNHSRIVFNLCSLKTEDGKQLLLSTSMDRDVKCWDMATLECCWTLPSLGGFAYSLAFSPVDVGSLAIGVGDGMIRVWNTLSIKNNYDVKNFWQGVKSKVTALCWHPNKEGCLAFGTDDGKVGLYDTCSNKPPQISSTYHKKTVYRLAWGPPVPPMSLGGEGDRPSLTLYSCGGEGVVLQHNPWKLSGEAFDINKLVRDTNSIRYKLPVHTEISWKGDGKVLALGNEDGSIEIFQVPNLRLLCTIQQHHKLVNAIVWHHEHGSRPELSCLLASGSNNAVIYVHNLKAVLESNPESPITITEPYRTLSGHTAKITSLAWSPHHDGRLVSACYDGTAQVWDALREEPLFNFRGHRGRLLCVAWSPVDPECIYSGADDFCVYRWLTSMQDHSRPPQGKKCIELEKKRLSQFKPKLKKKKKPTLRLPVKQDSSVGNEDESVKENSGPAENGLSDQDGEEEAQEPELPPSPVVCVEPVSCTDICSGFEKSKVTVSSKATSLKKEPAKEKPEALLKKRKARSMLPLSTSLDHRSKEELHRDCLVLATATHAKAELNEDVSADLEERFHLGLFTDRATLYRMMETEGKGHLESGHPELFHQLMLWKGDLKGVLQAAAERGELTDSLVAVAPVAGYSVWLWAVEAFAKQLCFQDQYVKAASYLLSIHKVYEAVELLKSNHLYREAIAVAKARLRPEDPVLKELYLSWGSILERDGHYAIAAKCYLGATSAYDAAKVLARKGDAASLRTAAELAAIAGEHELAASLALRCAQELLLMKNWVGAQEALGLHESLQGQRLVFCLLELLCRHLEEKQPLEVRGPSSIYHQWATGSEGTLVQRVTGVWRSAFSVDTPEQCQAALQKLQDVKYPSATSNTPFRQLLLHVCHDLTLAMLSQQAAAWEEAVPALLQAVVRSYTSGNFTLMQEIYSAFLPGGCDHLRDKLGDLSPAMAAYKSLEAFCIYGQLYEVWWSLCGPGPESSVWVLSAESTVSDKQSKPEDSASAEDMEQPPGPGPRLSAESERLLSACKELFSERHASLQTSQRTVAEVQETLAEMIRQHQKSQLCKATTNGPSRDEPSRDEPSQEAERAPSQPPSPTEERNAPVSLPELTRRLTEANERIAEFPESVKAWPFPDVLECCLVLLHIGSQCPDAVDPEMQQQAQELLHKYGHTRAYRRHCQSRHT
UniProt Q9QZR5: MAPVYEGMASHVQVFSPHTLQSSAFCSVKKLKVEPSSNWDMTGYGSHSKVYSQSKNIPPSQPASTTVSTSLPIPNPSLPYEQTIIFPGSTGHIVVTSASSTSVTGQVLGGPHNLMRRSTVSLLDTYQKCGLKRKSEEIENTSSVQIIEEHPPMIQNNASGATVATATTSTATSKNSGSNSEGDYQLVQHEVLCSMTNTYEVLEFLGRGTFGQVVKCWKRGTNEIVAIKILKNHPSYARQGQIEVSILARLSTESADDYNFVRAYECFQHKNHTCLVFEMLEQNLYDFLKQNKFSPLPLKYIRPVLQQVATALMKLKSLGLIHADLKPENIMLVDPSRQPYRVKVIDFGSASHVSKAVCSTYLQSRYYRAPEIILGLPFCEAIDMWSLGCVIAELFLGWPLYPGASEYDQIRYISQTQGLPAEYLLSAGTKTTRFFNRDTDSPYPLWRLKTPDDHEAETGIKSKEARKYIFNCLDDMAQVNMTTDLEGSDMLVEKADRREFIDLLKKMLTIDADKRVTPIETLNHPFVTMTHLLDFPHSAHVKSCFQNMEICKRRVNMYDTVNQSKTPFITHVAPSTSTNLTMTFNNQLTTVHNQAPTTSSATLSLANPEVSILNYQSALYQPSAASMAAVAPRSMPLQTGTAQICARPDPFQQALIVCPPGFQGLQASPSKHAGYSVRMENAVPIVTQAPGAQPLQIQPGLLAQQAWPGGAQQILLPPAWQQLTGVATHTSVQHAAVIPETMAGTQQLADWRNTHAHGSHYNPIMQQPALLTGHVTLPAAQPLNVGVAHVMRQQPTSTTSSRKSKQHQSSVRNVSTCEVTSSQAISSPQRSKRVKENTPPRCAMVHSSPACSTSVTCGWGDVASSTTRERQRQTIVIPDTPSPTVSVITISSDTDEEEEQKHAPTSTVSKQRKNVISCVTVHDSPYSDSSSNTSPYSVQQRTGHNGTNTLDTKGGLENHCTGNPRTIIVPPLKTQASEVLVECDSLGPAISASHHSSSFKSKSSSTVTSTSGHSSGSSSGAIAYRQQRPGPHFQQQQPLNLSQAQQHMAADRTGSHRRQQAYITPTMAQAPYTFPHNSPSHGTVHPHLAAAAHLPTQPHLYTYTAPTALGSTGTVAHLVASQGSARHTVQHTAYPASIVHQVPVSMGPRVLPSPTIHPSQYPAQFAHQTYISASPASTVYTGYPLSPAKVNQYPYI
UniProt P97801: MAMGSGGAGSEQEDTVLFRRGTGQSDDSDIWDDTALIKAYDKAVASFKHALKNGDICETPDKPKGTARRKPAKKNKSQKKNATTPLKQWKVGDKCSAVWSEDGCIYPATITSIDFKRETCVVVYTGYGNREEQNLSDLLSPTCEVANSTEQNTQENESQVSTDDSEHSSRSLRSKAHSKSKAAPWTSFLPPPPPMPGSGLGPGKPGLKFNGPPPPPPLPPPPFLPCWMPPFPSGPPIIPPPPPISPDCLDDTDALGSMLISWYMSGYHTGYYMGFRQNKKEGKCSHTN
UniProt Q9JJY4: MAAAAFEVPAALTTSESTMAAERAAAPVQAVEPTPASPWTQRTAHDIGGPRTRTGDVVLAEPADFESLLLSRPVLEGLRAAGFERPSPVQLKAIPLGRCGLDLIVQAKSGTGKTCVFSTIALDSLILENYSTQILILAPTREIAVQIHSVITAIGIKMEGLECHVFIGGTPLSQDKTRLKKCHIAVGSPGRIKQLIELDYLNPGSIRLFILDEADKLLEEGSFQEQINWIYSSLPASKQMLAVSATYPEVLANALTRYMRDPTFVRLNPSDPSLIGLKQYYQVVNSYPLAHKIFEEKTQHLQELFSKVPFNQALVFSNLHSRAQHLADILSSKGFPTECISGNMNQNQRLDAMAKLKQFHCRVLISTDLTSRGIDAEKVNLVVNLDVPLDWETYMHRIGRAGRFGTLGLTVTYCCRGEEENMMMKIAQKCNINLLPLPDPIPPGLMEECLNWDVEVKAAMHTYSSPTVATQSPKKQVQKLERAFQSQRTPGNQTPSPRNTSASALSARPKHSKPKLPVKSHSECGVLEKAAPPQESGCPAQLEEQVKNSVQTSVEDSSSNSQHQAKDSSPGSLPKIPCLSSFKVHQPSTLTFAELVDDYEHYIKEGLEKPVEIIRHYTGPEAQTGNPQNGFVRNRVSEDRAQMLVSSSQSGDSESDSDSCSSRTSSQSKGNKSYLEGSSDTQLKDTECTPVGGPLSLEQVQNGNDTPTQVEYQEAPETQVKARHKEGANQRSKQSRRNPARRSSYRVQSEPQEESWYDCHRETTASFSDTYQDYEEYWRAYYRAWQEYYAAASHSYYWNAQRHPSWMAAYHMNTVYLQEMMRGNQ
UniProt Q921F2: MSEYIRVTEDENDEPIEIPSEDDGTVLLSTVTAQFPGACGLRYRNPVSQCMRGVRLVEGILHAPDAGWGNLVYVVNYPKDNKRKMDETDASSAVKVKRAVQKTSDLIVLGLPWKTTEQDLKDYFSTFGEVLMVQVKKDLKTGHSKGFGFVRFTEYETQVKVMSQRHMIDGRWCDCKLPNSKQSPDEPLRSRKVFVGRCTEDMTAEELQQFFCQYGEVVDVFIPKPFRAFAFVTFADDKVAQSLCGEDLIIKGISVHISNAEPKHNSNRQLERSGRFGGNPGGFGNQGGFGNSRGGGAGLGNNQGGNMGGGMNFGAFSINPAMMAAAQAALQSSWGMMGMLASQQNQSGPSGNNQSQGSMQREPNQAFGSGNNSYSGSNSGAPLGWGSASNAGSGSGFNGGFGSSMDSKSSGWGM

No constants are given. Whether binding was seen depends on the method and setting. Binding seen in cells or lysates may run through a third protein. Some entries that bind do so weakly or less than the wild type.

This assay deals with GEMIN5 (mouse (endogenous in NSC34)) (UniProt Q8BX17). Kind of assay: co-IP; anti-GEMIN5 (GTX130498) on Dynabeads protein A, incubated overnight with 2500-3000 ug of extracts of NSC34 cells treated with DMSO or flunarizine for 2 h; lysis and wash buffer 25 mM Tris-HCl pH 7.4, 150 mM KCl, 1% NP40, 5 mM EDTA, 0.5 mM DTT, RNAse out; not cross-linked; control IgG; read by immunoblot.
On to HIPK2 (from UniProt Q9QZR5 1-1196), for which the binding result is “binds”. For SMN (from UniProt P97801 1-288) the value was “binds”; for GEMIN3 (from UniProt Q9JJY4 1-825), “no binding”; for TDP-43 (from UniProt Q921F2 1-414), “binds”. For the molecule B1, the binding result is listed as “no binding”. The result for B2 reads “no binding”; that for B3, “binds”.

The record behind these values is PMC11431868.
